Measured values reported in publication PMC12136788.
This is one part of the list.

B1: chr8:95500983:95500984:-_ENSG00000164944_ENST00000437199|hu_hu|hu_hu_hu_mus_True|18_28 (ssRNA)
RNA: GGGAGUUCUACAGUCCGACGAUCAGAACACAUCUAUCGAGUAAAGGACCGUACAUGACGGCCUCUACCACUGCCUCCACUAACAAACUUUCCUCUCGAGCCUCCACCUGCCGCUAUUUGCACUAGCCAGGACGGUCCCAGGCCCAACAGAGGAUUGAGCAUCA
B2: chr4:54294246:54294247:+_ENSG00000145216_ENST00000306932|hu_hu|FALSE|FALSE (ssRNA)
RNA: GGGAGUUCUACAGUCCGACGAUCUGGAGGAGGUGGAAGGUGAGUGGGAGGAGCUCCUGGAGGGAAAAACGGAGGUGGUUUGCUAAAAUUGUUGUCUACUUCAGUAGCAGAUCUUUCAGAAAGGACCUGUAUGUUGCUGUUCUCCAACAGAGGAUUGAGCAUCA
B3: chr16:64763996:64763997:-_ENSMUSG00000059920_ENSMUST00000076991|mus_mus|motif|central (ssRNA)
RNA: GGGAGUUCUACAGUCCGACGAUCAGGCUUUUUAAGAAUUCAAAAAUUCAAUAUGAAAGAUAGCUUUUUAAAAAACCUUUCGGUAGCAGUAACACAAAUAGCCCAUGGAUUGUUUUUAAUCUUAUGCUUUUCUCAGGGCAUUUACAACAGAGGAUUGAGCAUCA
B4: 37450423_37450543_1856_CDS_ENSG00000115816_ENST00000234170|human|control|control (ssRNA)
RNA: GGGAGUUCUACAGUCCGACGAUCUAACCUCUUCACAAAAGCCUUCACCCGGCGCAACACAAUGUCAGCUUUCAGAGAUUUGUAGACAAGGUUAAGAAACAUAGCUUGCUUGGAACACGUCAUCAACCCUGGAUCCAACAUCUUCAACAGAGGAUUGAGCAUCA
B5: 151749061_151751266_965_CDS_ENSG00000182134_ENST00000458431|human|control|control (ssRNA)
RNA: GGGAGUUCUACAGUCCGACGAUCGUCAGGACUGGGGAUUUCAAACAUGGGCAUCUCUGGGAUGGCCUGGGCUUCAGACUUCUGAAAGCUGUCAUCACUAGGUUUCUCCCAGGAACCUUCCUUUGACACUACCACAGCCAUGUCCAACAGAGGAUUGAGCAUCA
B6: chr8:104447970:104447971:+_ENSG00000164934_ENST00000297579|hu_hu|hu_hu_hu_mus_False|18_108 (ssRNA)
RNA: GGGAGUUCUACAGUCCGACGAUCAUAUACCUCCCUGCUUCGGCUCUUGUCCACAGGAAAGAUUCUAAUAGACUUAUCAAAGCUGGCAGACACAAAUUCCUUCCCAGUGGGAGAGUAAUCCACAUCAAGUACUGCAGACACGUGCAACAGAGGAUUGAGCAUCA
B7: 117457482_117458510_5198_CDS_ENSMUSG00000038371_ENSMUST00000033058|mouse|control|control (ssRNA)
RNA: GGGAGUUCUACAGUCCGACGAUCUCUUGGCUCUUCCUUGAGGUCCGUGGUGACUUUUUCCCAUAGCUGGUGCCAUCUCUCAGGAGUUUGAUUCAAUUUAUGCUCCAAUUUUUCAAUUUCACUGAAAAGUCUCGUGAGGGCAUCCAACAGAGGAUUGAGCAUCA
B8: chr14:102368134:102368135:+_ENSG00000078304_ENST00000445439|hu_hu|hu_hu_hu_mus_True|48_78 (ssRNA)
RNA: GGGAGUUCUACAGUCCGACGAUCAAGAGGCUCCAUGAUCUUCACAAACUCUGAUGGUUCAAUGACAUCUAAAAUUUCUUCUAAUUCGUUUAAGAACAUUACUUCUUUUGGACUGUGAGUCUUUGGCCAGUAUUUGAGAAGUGCCAACAGAGGAUUGAGCAUCA
B9: chr2:113333244:113333245:+_ENSG00000125630_ENST00000417433|hu_mus|FALSE|FALSE (ssRNA)
RNA: GGGAGUUCUACAGUCCGACGAUCGGGAUCAAGUCAGAUGACAUCCAGUUUCACUUUGAUGUUCAUGGCUGCCAGCUCAGCUACAAAGUACCGGAAGACAUACGGCACAGAGACGGUGUCGAUGGUGUCACUGCGGCCACAGACCAACAGAGGAUUGAGCAUCA
B10: 10327494_10327614_699_CDS_ENSG00000054523_ENST00000377093|human|control|control (ssRNA)
RNA: GGGAGUUCUACAGUCCGACGAUCGGCUUUGUUCCCAGCAUCCAUGAGGUCAGCAAUGUCUGUGUAGGAAGUAACUGCCAACUUGGACAGAUCCUCCACAUAGGGUCCAAGAAGUGGGUGUUCACGCACACGCAAAUUACCCUUCAACAGAGGAUUGAGCAUCA
B11: chr11:87794392:87794393:-_ENSMUSG00000020483_ENSMUST00000020775|mus_hu|motif|central (ssRNA)
RNA: GGGAGUUCUACAGUCCGACGAUCCCCCACCCUCCGCCCCAAGCCAUAGAAUCACAGUUCAGUGGAAUAUUCUCCCUGGUACGGGAUCAAUCCCUCCACCUUCCUUCCUACCCCUUUUUCCUUGACAAUCCCAACACUGUCCCCCAACAGAGGAUUGAGCAUCA
B12: chr14:76904430:76904431:+_ENSMUSG00000022010_ENSMUST00000022587|mus_mus|mus_mus_mus_hu_True|48_78 (ssRNA)
RNA: GGGAGUUCUACAGUCCGACGAUCUGCAGCCAAAAACACCCUCGUGGAAAAAAAGAGCAAGCUCCAGCAGCCUUGUAUAAGCUAGAUAAAACCGCCUGGCUUUCCGCAGCCCAGGGAGAAACAGAAAACGGCAGCCCUAAUUUACAACAGAGGAUUGAGCAUCA
B13: chr21:44329077:44329078:+_ENSG00000160194_ENST00000354250|hu_mus|FALSE|FALSE (ssRNA)
RNA: GGGAGUUCUACAGUCCGACGAUCCUCUCGUCCUGAAGACGGCUGUGGCAGCCUGAAUUUGGAGAGGUCCAGGUUCAGGUCCAGGAAGGUGUAUGUGUUGUAGUCAUGGUGCUGCAGGUUCUUGUAGGUGGUGGUGUCAGUCGGCAACAGAGGAUUGAGCAUCA
B14: chr19:55172109:55172110:-_ENSMUSG00000024978_ENSMUST00000061856|mus_mus|FALSE|FALSE (ssRNA)
RNA: GGGAGUUCUACAGUCCGACGAUCGUGUGUUUACAUCGGCCAAGGCUGUAUUCCGAUGAACUGGGCAGAUAAGAAACGUCUAUUGUGCCAACUGUCACUGAAGACUCCUCCAUGGCAGAACGUGCAAGUCCCAAACCAUGUGCUCAACAGAGGAUUGAGCAUCA

target: T1, UNK ZnF1-3 (human, UniProt Q9C0B0 31-174); assay: nsRBNS (natural sequence RNA bind-n-seq); RBNS binding buffer (assumed for nsRBNS): 25 mM Tris pH 7.5, 150 mM KCl, 3 mM MgCl2, 0.01% Triton X-100, 500 ug/ml BSA, 20 U/ml SUPERase-In, 4 C; UNK is unkempt and MSI1 is Musashi-1; names of the RNAs are library labels; protein concentration not given here; high values mean tight binding
T1 sequence: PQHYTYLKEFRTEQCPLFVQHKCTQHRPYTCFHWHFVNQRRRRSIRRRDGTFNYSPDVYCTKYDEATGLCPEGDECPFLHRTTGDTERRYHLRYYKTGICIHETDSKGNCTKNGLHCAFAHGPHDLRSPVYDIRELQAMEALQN

| Binder | binding signal [enrichment R] |
| --- | --- |
| B1 | 1.13 |
| B2 | 1.23 |
| B3 | 0.832 |
| B4 | 1.05 |
| B5 | 0.716 |
| B6 | 0.943 |
| B7 | 0.522 |
| B8 | 0.743 |
| B9 | 1.02 |
| B10 | 0.706 |
| B11 | 1.23 |
| B12 | 2.22 |
| B13 | 0.911 |
| B14 | 0.84 |
